Here are results for 63 sequences from the supplement of paper PMC10681739.

The full ranking holds about 2,700 sequences; the median of “arbitrary fluorescence units” is about 4,100, and the highest 2% start at about 54,000. The list shows a part of the results.

This assay addresses T1, ETS1 (UniProt P14921).
T1 sequence: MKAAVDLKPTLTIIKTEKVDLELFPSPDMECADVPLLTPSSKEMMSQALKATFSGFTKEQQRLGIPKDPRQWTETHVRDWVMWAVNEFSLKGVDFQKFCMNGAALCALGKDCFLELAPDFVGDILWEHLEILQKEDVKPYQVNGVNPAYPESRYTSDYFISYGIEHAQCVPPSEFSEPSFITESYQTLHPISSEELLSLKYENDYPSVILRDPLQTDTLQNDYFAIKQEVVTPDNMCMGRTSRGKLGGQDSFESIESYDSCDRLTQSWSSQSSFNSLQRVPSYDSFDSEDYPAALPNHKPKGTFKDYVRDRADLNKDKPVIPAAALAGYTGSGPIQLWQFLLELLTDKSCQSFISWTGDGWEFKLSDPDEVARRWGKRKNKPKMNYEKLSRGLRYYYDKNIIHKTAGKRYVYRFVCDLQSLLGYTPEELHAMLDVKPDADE
Description: ETS1 binding intensity (PBM fluorescence) (arbitrary fluorescence units); higher = stronger binding. Particulars: ETS1 concentration 10 nM. The protocol:
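gcPBM on wild-type 36-bp genomic probes with two neighbouring ETS1 sites (4-24 bp apart). Recombinant human ETS1 (10 nM) was detected with anti-ETS1 antibody fluorescence. Values are medians over 3 replicate spots. The probes sit in constant array flanks that are not printed.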
For the sequence TATGTTTCCGGAGGGGTAACGGCGGTGAGGAAATCA, the ETS1 binding intensity is 16200.

As to CGGCAGGGGAAATGAAGGAGATGACGGGAAATGATA, the ETS1 binding intensity is 343.

TATTTACAACACAGGAAACAGGATGCCCTTGTCCTC returned an ETS1 binding intensity of 2110.

CATAACAGGAAATTAGAAACTTAACTTCCCTATTCA yielded an ETS1 binding intensity of 8390.

As to CGAGCGGGCAGGAAGCCCAGCGTTCCGGGTTCCAGG, the ETS1 binding intensity is 1180.

Consider GGCGACCGGAAGGTCCTGGCCGCCTTTCCGGTCTCC, for which the ETS1 binding intensity is 11100.

For the sequence TCCCACTTCCTCCTGCCCTGCTGAGTTTCCTGGGCC, the ETS1 binding intensity is 25100.

With GCAGAAGCAGGAAGACAGCTGGCCGGAAGACAGGTA, the ETS1 binding intensity is 1740.

In turn, CTGTGGCCGATTTCCTTTCATTTCCCCGCCCCTCAC came in with an ETS1 binding intensity of 4630.

On to GCCTTTAAGGATGTAAGCACCACCTTCCTGTCTCCT, for which the ETS1 binding intensity came out at 919.

In turn, GAGAACAACAGGAAATGAGCCCGGAACGCAGGCCCC returned an ETS1 binding intensity of 13800.

ATGGGCTGGGCAGGAAGGAGCGGAACAATGAAAGAT came in with an ETS1 binding intensity of 752.

For AGTTAATGACAGGATGTCATGGGAAGTAGGGGCTGG, the ETS1 binding intensity amounted to 3810.

In turn, CTTCCACATCTTCCTGCAGAGCATCCTGTCTGTGCA returned an ETS1 binding intensity of 4230.

Consider TAAAACATCAGAACTTCCTTCCTGTATGAGTGTACA, for which the ETS1 binding intensity was 5420.

In turn, GTAGGTACAGCCAGGAAAAGGATGTTGTCTGATTGT gave an ETS1 binding intensity of 231.

In turn, CAAGCGATTCTTCCGCCTCAACTTCCTGAGTAGCTG showed an ETS1 binding intensity of 5800.

For GAAGGTGCTTAGGAAACCCTGCTTCCTTTTGTCTCT, the ETS1 binding intensity is 279.

The sequence TTGACAGGATGTGTTTAGAGGAGAGATTTCCGTAGC gave an ETS1 binding intensity of 2900.

GACAAACACATCCTGAAATAACAGGAAATGAACTAT had an ETS1 binding intensity of 6800.

Turning to TGGGAGGAAGGTGCGAGCCAGACCCACATCCTCTCT, the ETS1 binding intensity came to 193.

ACCCCAACACTTCCCCAGTCAATTTCCTGTGTTAGG: the ETS1 binding intensity turned out to be 4950.

As for CGCCGGGAAGCCCACAGCATCTGATAATATCCGGGC, the ETS1 binding intensity came out at 305.

In turn, TCCCTGGGAAGTTTGCGGGCAGCCCCATCCTGTGTC came in with an ETS1 binding intensity of 183.

GCCCAGGAAACGTGGCGGCCCCGCAGCCGGAAGCGC came in with an ETS1 binding intensity of 1780.

In turn, CCGCGCCTCCAGCGGAAGCCGGAAGCAAAAGCGGGT registered an ETS1 binding intensity of 5670.

In turn, TAGCGCTCCGCTTCCGCTGGCTTCCGCACCCGGGCC came in with an ETS1 binding intensity of 12300.

The sequence AGTATGTAATTTCCTCACGGCATTTCCGACATATTT registered an ETS1 binding intensity of 2500.

CCCACATCCTGCACTCGTGATAAACAGTTTCCTGTT displayed an ETS1 binding intensity of 19000.

Sequence CCCAAGCCTGTTTCCTGCTCTGGGAAATGAGCTGAC registered an ETS1 binding intensity of 12800.

The sequence CCCCGGCGACGGAAGCAGCGGCGGAACGCGAGCCTC registered an ETS1 binding intensity of 857.

With GACCCTTCCGTCCCCTGCAGCGCCTGCTTCCTGGAC, the ETS1 binding intensity came to 7950.

Sequence GACAACAGGAAGCGTTCCAACTGCCGGAAAAGACGC showed an ETS1 binding intensity of 9640.

GAGAGGCATCCGGGCGAGGAGCTGCGGATGGGGGCG returned an ETS1 binding intensity of 6210.

As to AGGGCTACGGAAGTTGCTCTGTGGTTTCCGGCACTG, the ETS1 binding intensity came out at 3790.

Take GAGTCATTTCCTGTGCTATCAGCTCCGGAAGCAGAG: the ETS1 binding intensity was 48200.

On to GCGGTCCGGCCGGAAGTCACCGGAAGAGGCCGGTGT, for which the ETS1 binding intensity was determined as 25500.

For ACCCACTTACATCCTCGGAATAGGAAATAGATTAGT, the ETS1 binding intensity was found to be 577.

GAGGAGGAAATCGCTGCTCTCCGCTCCTTCCTGTAG had an ETS1 binding intensity of 1340.

Turning to CTGACTCCCATCCTGGCAAGAGGCTTCCGGAGTGTT, the ETS1 binding intensity was determined as 1390.

With GTGGTTTCCTGGGTATGCCAGAACCACAGGATGCAA, the ETS1 binding intensity was 10500.

In turn, GTACCCCGGAAGCAGTCGCTGCAACTTCCGGGAGGT came in with an ETS1 binding intensity of 13500.

Consider GAGCGGAAGGGGGCCGCCGGGCACGCCGGGAAGTGT, for which the ETS1 binding intensity was 764.

Turning to GGGAATACATCCTCTTACAGGCCAGGATATGACTCA, the ETS1 binding intensity was 6690.

Sequence TTTTTCTTCCGTCTGAGTTCAGCAAACTTCCTGCTT returned an ETS1 binding intensity of 3220.

As to GGGCACTTCCGGGGCCGGCGCCCAGAGTTCCGGGAG, the ETS1 binding intensity worked out at 46800.

Take CTTGCTTCCTCAGGTGTCATCTCCAGCTTCCGCTTG: the ETS1 binding intensity amounted to 2610.

On to GGCGTGGTCTTCCGTGGGAGAGAAGGAAATTCTTTG, for which the ETS1 binding intensity is 234.

For CAGCATTTCCTGAAGTCAAGCGCTCAGGAAATGGTT, the ETS1 binding intensity worked out at 12200.

GTGCTACAGGGGAAGTGAAGAAAGGAAGCACCTGGC came in with an ETS1 binding intensity of 495.

Turning to TGGCACATACATCGGAAACAGGAAAAAATGTGAAAA, the ETS1 binding intensity amounted to 298.

With TGTACATTTCCTGTCTCAGATCTGTTTCCTTTTAGT, the ETS1 binding intensity came out at 40000.

Turning to GTCTTTGAAAGGGCTTCCTTCCTGTTGTCTGGACCC, the ETS1 binding intensity came out at 3470.

In turn, GGAACAAGCAGGAAGTAGAAGAGGAAATGAGATGTG came in with an ETS1 binding intensity of 10200.

In turn, TGAGTCAGTTTGCTTCCTGGGGAAGTGACAGGGAGC displayed an ETS1 binding intensity of 1070.

TGTCCATTTCCCACCCTAAAGAGAACATCCTGCATA showed an ETS1 binding intensity of 1660.

CCACGGAGCAGGAAGTGGCACCGGAAGCAGAGGGCA: the ETS1 binding intensity is 17100.

TTTTGACGTTTCCTATTGTTGCCGGAAGTGACGTTA had an ETS1 binding intensity of 8580.

Take TAGCTGTTGGGGTTTCCGTTTCCTGGGCGTCTCAGC: the ETS1 binding intensity is 4820.

GTCACGACCCTTCCTGGTCTCTCTTCCTGCAGGATG had an ETS1 binding intensity of 1430.

In turn, ATTAAACTGCCTTCCTGTTTCAGGAAGCTGGGCCCA had an ETS1 binding intensity of 5600.

As for CTGATAGGGGAAGTGGGAGTTGACAGGATGGTTTAA, the ETS1 binding intensity was found to be 424.

As to AGACAGGAAGTGGAACCGCTAATTCCGGTGCGGTGG, the ETS1 binding intensity came out at 12400.
